The source gives no read counts; variants with many changes may rest on few reads.
B1: LINE1-full (parent)
chain: UACGUAGGUGGUUUUCCCCUGAUAGUGCUAAGGGGGCCUGGAAGUUUGGACUGGGCAGAGCUCAACACAGCGUGGCAAAGUGGCUGUGGCUAGACUGCCUCUCUGGAUUCCUCGUCACUCAGCAGGGCAUCUCUGAGAGAAAUGCC

Variants of: B1
Assay: self-cleavage, relative activity (ratio to wild type); higher = more cleavage; in vitro, sequencing; the parent is a self-cleaving ribozyme

Variant | self-cleavage
UACGUAGGUGGUUUUCCCCUGAUAGUGCUAAGGGGGCCUGGGAGUUUGGACUGGGCAGAGCUCAACACAGCAUGGCAAAGUGGCUGUGGCUGGACUGCCUCUCUGGAUUCCUCGUCACUCAGCAGGGCAUCUCUGAGAGAAAUGCC [A42G G72A A92G] | 0.03
UACGUAGGUGGUUUUCCCCUGAUAGUGCUAAGGGGGCCUGGGAGUUUGGACUGGGCAGAGCUCAACACAGCGUAGCAAAGUGGCUGUGGCUAAACUGCCUCUCUGGAUUCCUCGUCACUCAGCAGGGCAUCUCUGAGAGAAAUGCC [A42G G74A G93A] | 0.05
UACGUAGGUGGUUUUCCCCUGAUAGUGCUAAGGGGGCCUGGGAGUUUGGACUGGGCAGAGCUCAACACAGCGUGGCAAAGUGGCUGUAGCUAGACUGCCUCUCUGGAUUCCUCGUCACUCAGCAGGGCACCUCUGAGGGAAAUGCC [A42G G88A U130C A138G] | 0.05
UACGUAGGUGGUUUUCCCCUGAUAGUGCUAAGGGGGCCUGGGAGUUUGGACUGGGCAGAGCUCAACACAGCGUGGCAAAGUGGCUGUGACUAGACUGCCUCUCUGGAUUCCUCGUCGCUCAGCAGGGCAUCCCUGAGAGAAAUGCC [A42G G89A A117G U132C] | 0.06
UACGUAGGUGGUUUUCCCCUGAUAGUGCUAAGGGGGCCUGGGAGUUUGGACUGGGCAGAGCUCAACACAGCGUGGCAAAGUGGCUGUGACUAGACUGCCUCUCUGGACUCCUCGUCACUCAGCAGGGCAUCUCUGAGAGAAAUGCC [A42G G89A U108C] | 0.06
UACGUAGGUGGUUUUCCCCUGAUAGUGCUAAGGGGGCCUGGGAGUUUGGACUGGGCAGAGCUCAACACAGCGUGGCAAAGUGGCUGUGGCUAGACUACCUCUCUGGAUUCCUCGUCACUCGGCAGGGCAUCUCUGAGAGAAGUGCC [A42G G97A A121G A142G] | 0.22
UACGUAGGUGGUUUUCCCCUGAUAGUGCUAAGGGGGCCUGGGAGUUUGGACUGGGCAGAGCUCAACACAGCGUGGCAAAGUGGCUGUGGCUAGACUUCCUCUCUGGACUCCUCGUCACUCAGCAGGGCAUCUCUGAGAGAAGUGCC [A42G G97U U108C A142G] | 0.15
UACGUAGGUGGUUUUCCCCUGAUAGUGCUAAGGGGGCCUGGGAGUUUGGACUGGGCAGAGCUCAACACAGCGUGGCAAAGUGGCUGUGGCUAGACUGCCUCUCUGAAUUCCUCGUCACUCAGCGGGGCAUCUCUGAGAGAAGUGCC [A42G G106A A124G A142G] | 1.82
UACGUAGGUGGUUUUCCCCUGAUAGUGCUAAGGGGGCCUGGGAGAUUGGACUGGGCAGUGCUCAACACAGCGUGGCUAAGUGGCUGUGGCUAGGCUGCCUCUCUGGAUUCCUCGUCACUCAGCAGGGCAUCUCUGAGAGAAAUGCC [A42G U45A A59U A77U A94G] | 1.27
UACGUAGGUGGUUUUCCCCUGAUAGUGCUAAGGGGGCCUGGGAGCUUGGACUGGGCAGAGCUCAACACGGCGUGGCGAAGUGGCUGUGGCUAGACUGCCUCUCUGGAUUCCUCGUCACUCAGCAGGGCAUCUCUGAGAGAAAUGCC [A42G U45C A69G A77G] | 0
UACGUAGGUGGUUUUCCCCUGAUAGUGCUAAGGGGGCCUGGGAGCUUGGACUGGGCAGAGCUCAACACGGCGUGGCAAAGUGGCUGUGGCUAGACUGCCUCUCUGGAUUCCUCGACACUCAGCAGGGCAUCUCUGAGAGAAAUGCC [A42G U45C A69G U115A] | 0
UACGUAGGUGGUUUUCCCCUGAUAGUGCUAAGGGGGCCUGGGAGCCUGGACUGGGCAGAGCUCAACACAGCGUGGCAAAGUGGCUGUGGCUAGACUGCCUCUCUGGAUUCCUCGUCACUCAGCAGGGCAUCUCUGAGAGAAAUGCC [A42G U45C U46C] | 2.12
UACGUAGGUGGUUUUCCCCUGAUAGUGCUAAGGGGGCCUGGGAGCCUAGACUGGGCAGAGCUCAACACAGCGUGGCAAAGUGGCUGUGGCUAGACCGCCUCUCUGGAUUCCUCGUCACUCAGCAGGGCAUCUCUGAGAGAAAUGCC [A42G U45C U46C G48A U96C] | 0
UACGUAGGUGGUUUUCCCCUGAUAGUGCUAAGGGGGCCUGGGAGUAUGGACUGGGCAGAGCUCGACACAGCGUGGCAAAGUGGCUGUGGCUAGACUGCCUCUCUGGAUUCCUCUUCACUCAGCAGGGCAUCUCUGAGAGAAAUGCC [A42G U46A A64G G114U] | 0.19
UACGUAGGUGGUUUUCCCCUGAUAGUGCUAAGGGGGCCUGGGAGUCUGGACUGGGCAGUGCUCAACACAGCGUGGCAAAGUGGCUGUGGCUAGACUGCCUCUCUGGAUUCCUCGUCACUCAGCAGGGCAUCUCUGAGAGAAAUGCC [A42G U46C A59U] | 0.26
UACGUAGGUGGUUUUCCCCUGAUAGUGCUAAGGGGGCCUGGGAGUCUGGACUGGGCAGAGCUCAGCACAGCGUGGCAAAGUGGCUGUGGCUAGACUACCUCUCUGGAUUCCUCGUCACUCAGCAGGGCAUCUCUGAGGGACGUGCC [A42G U46C A65G G97A A138G A141C A142G] | 0.19
UACGUAGGUGGUUUUCCCCUGAUAGUGCUAAGGGGGCCUGGGAGUCUGGACUGGGCAGAGCUCAACACAGCGUGGCAAAGUGGCUGUGGCUAGACUGCCUCUCUGGAUUCCUCGUCACUCAGCAGGGCAUCUCUGAGAGAAGUGCC [A42G U46C A142G] | 1.5
UACGUAGGUGGUUUUCCCCUGAUAGUGCUAAGGGGGCCUGGGAGUCUGGACUGGGCAGAGCUCAACACAGCGUGGCAAAGUGGCUGUGGCUAGAUUGCCUCUCUGGAUUCCUCGUCACUCAGCAGGGCAUCUCUGAGAGAAAUGCC [A42G U46C C95U] | 0.72
UACGUAGGUGGUUUUCCCCUGAUAGUGCUAAGGGGGCCUGGGAGUUAGGACUGGGCAGAGCUCAACACGGCGUGGCAAAGUGGCUGUGGCUGGACUGCCUCUCUGGAUUCCUCGUCACUCAACAGGGCAUCUCUGAGAGAAAUGCC [A42G U47A A69G A92G G122A] | 0.08
UACGUAGGUGGUUUUCCCCUGAUAGUGCUAAGGGGGCCUGGGAGUUAGGACUGGGCAGAGCUCAACACAGCGUGGCAAAGUGGCUGUGGCUAGACUGCCUCUCUGGAUUCCUCGUCACUCAGCAGGGCAUCUCUGAGAGAAUAGCC [A42G U47A A142U U143A] | 0.98

Variant | self-cleavage
UACGUAGGUGGUUUUCCCCUGAUAGUGCUAAGGGGGCCUGGGAGUUAGGACUGGGUAUAGCUCAACACAGCGUGGCAAAGCGGCUGUGGCUAGACAGCCUCUCUGGAUUCCUCGUCACUCAGCAGGGCAUCUCUGAGAGAAAUGCC [A42G U47A C56U G58U U81C U96A] | 0.03
UACGUAGGUGGUUUUCCCCUGAUAGUGCUAAGGGGGCCUGGGAGUUCGGACUGGGCAGAGCUCAACACAGCGUGGCAAAGUGGCUGUGGCUAGACUGCUCCUCUGGAUUCCUCGUCACUCGGCAGGGCAUCUCUGAGAGAAAUGCC [A42G U47C C99U U100C A121G] | 1.31
UACGUAGGUGGUUUUCCCCUGAUAGUGCUAAGGGGGCCUGGGAGUUCGGACUGGGCAGAGCACAACACAGCGUGGCAAAGUGGCUGUGGCUAGACUGCCUCUCUGGAUUCCUCGUCACUCAGCAGGGCAUCUCUGAGAGAAAUGCC [A42G U47C U62A] | 0.19
UACGUAGGUGGUUUUCCCCUGAUAGUGCUAAGGGGGCCUGGGAGUUCGGACUGGGCAGAGCUCAACACAGCGUGGCAAAGUGGCUGUGGCUAGACUGCCCCUCUGGAUUCCUCGUCACUCAGCAGGGCAUCUCUGAGAGAAAUGCC [A42G U47C U100C] | 1.78
UACGUAGGUGGUUUUCCCCUGAUAGUGCUAAGGGGGCCUGGGAGUUGGGACUGGGCAGAGCUCAACACAGCGUGGCAAAGUGGUUGUGGCUAGACUGCCUCUCUGGAUUCCUCGUCACUCAGCAGGGCAUCUCUGAGAGAAAUGCC [A42G U47G C84U] | 0.08
UACGUAGGUGGUUUUCCCCUGAUAGUGCUAAGGGGGCCUGGGAGUUUGGACAGGGCAGAGCCCAACACAGCGUGGCAAAAUGGCUGUGGCUAGACUGCCUCUCUGGAUUCCUCGACACUCAGCAGGGCACCUCUGAGGGAAAUGCC [A42G U52A U62C G80A U115A U130C A138G] | 0
UACGUAGGUGGUUUUCCCCUGAUAGUGCUAAGGGGGCCUGGGAGUUUGGACCGGGCAGAGCUCAACACAGCGUGGCAAUGUGGCUGUGGCUAGACUGCCUCUCUGGAUUCCUCGUCACUCAGCAGGGCAUCUCUGAGAGAAAUGCC [A42G U52C A79U] | 1.4
UACGUAGGUGGUUUUCCCCUGAUAGUGCUAAGGGGGCCUGGGAGUUUGGACCGGGCAGAGCUCAACACAGCGUGGCAAAGUGGCUGUGGCUAGACUGCCUCUCUGGAUUCCUCGUCACUCAGCAGGGCGUCCCUGAGAGAAAUGCC [A42G U52C A129G U132C] | 1.31
UACGUAGGUGGUUUUCCCCUGAUAGUGCUAAGGGGGCCUGGGAGUUUGGACUGGGCAGAGCACUACACAGCGUGGCAAAGUGGCUGUGGCUAGACUGCCUCUCUGGAUUCCUCGUCACUCAGCAGGGCAUCUCUGAGAGAAAUGCC [A42G U62A A64U] | 0.09
UACGUAGGUGGUUUUCCCCUGAUAGUGCUAAGGGGGCCUGGGAGUUUGGACUGGGCAGAGCACAACACAGCGUGGCAAAGUGGCUGUGGCUAGACUGCCUCUCUGGAUUCCUCGUCACUCAGCGGGGCAUCUCUGAGAGAAAUGCC [A42G U62A A124G] | 0.04
UACGUAGGUGGUUUUCCCCUGAUAGUGCUAAGGGGGCCUGGGAGUUUGGACUGGGCAGAGCACAACACAGCGUGGCAAAGUGGCUGUGGCUAGACUGCCUCUCUGGAUUCCUCGUCACUCAGGAGGGCAUCUCUGAGAGAAAUGCC [A42G U62A C123G] | 0.09
UACGUAGGUGGUUUUCCCCUGAUAGUGCUAAGGGGGCCUGGGAGUUUGGACUGGGCAGAGCCCAACACAGCGUGGCAUAGUGGCUGUGGCUAGACUGCCUCUCAGGAUUCCUCGUCACUCUGCAGGGCAUCUCUGAGAGAAAUGCC [A42G U62C A78U U104A A121U] | 0.04
UACGUAGGUGGUUUUCCCCUGAUAGUGCUAAGGGGGCCUGGGAGUUUGGACUGGGCAGAGCCCAACACAGCGUGGCAAAGUGGCUGUGGGUAGACUGCCUCUCUGGAUUCCUCGUCACUCAGCAGGGCAUCCCUGAGAGAAACGCC [A42G U62C C90G U132C U143C] | 0.07
UACGUAGGUGGUUUUCCCCUGAUAGUGCUAAGGGGGCCUGGGAGUUUGGACUGGGCAGAGCCCAACACAGCGUGGCAAAGUGGCUGUGGCUAGACUGCCUCUCUGGAUUCCUCGUCACUCAGCAGGGCAUCUCCGAGAGAAAUGCC [A42G U62C U134C] | 0.03
UACGUAGGUGGUUUUCCCCUGAUAGUGCUAAGGGGGCCUGGGAGUUUGGACUGGGCAGAGCUCAACACAGCGAGGCAAAGUGGCUGUGGCUAGACUGCCUCUCUGGAUUCCUCGUCACUCAGCAGGGCAUCUCUGAGAGGAAUGCC [A42G U73A A140G] | 1.18
UACGUAGGUGGUUUUCCCCUGAUAGUGCUAAGGGGGCCUGGGAGUUUGGACUGGGCAGAGCUCAACACAGCGUGGCAAAGAGGCUGUGGCUAGACUGCCUCUCUGGAUUCCUUGUCACUCAGCAGGGCAUCUCUGAGAGAAAUGCC [A42G U81A C113U] | 1.18
UACGUAGGUGGUUUUCCCCUGAUAGUGCUAAGGGGGCCUGGGAGUUUGGACUGGGCAGAGCUCAACACAGCGUGGCAAAGCGGCUGUGGCUAGACUGCCUCUCUGGAUUCCUCGUCACUCAGCGGGGCAUCUCUGAGAGAAAUGCC [A42G U81C A124G] | 0
UACGUAGGUGGUUUUCCCCUGAUAGUGCUAAGGGGGCCUGGGAGUUUGGACUGGGCAGAGCUCAACACAGCGUGGCAAAGCGGCUGAGGCUAGACUGCCUCUCUGGAUUCCUCGACACUCAGCAGGGCAUCUCUGAGAGAAAUGCC [A42G U81C U87A U115A] | 0.28
UACGUAGGUGGUUUUCCCCUGAUAGUGCUAAGGGGGCCUGGGAGUUUGGACUGGGCAGAGCUCAACACAGCGUGGCAAAGUGGCCGUGGCUAGACUGCCUCUCUGGAUUCCUCGUCACUCUGCAGGGCAUCUCUGAGAGAAAUGCC [A42G U85C A121U] | 0.28

— the RNAGym collection of RNA variant scans (doi:10.7554/elife.90254)
